Data taken from the supplement of paper PMC4967469.
Lines with a small IC50 respond at low doses; fits outside the tested doses are given as limits. The AUC spans the tested range (256-fold, ending at the top dose) of the same fit; the more sensitive the line, the further below 1. The top dose, if marked as inferred, comes from the curve model; the source does not state it.

The cell lines below were run with Cc1ccc(-c2c(C(=O)CF)n(CCCO)c3ncnc(N)c23)cc1 [FMK] (assay: Viability of human cancer cell lines after 72 h of drug (GDSC screen)). Conditions: top dose inferred.
Protocol: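 Human cancer cell lines in 384-well plates, medium with 10% serum, drug for 72 h over a 256-fold dose range (nine 2-fold or five 4-fold steps up to the top dose). Adherent lines were fixed and stained with the nucleic acid dye Syto60, suspension lines read with resazurin; signal relative to control wells, capped at 0 and 100%. One two-parameter sigmoid per drug and line, fitted in a mixed model over all curves with the slope shared within a line.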

Q: “KYSE-510 (oesophagus, adherent, top dose 20 µM)” was tested. Which AUC did it give?
A: 0.991

Q: And the IC50?
A: > 20 µM

Q: What does the source list for “KYSE-520 (oesophagus, adherent, top dose 20 µM)”?
A: AUC: 0.957; IC50: > 20 µM

Q: Which results are given for “L-363 (myeloma, suspension, top dose 20 µM)”?
A: AUC: 0.977; IC50: > 20 µM

Q: What does the source list for “L-428 (Hodgkin lymphoma, suspension, top dose 20 µM)”?
A: AUC: 0.988; IC50: > 20 µM

Q: How did the AUC turn out when “L-540 (Hodgkin lymphoma, suspension, top dose 20 µM)” was run?
A: 0.977

Q: And the IC50?
A: > 20 µM

Q: Which results are given for “L-1236 (Hodgkin lymphoma, suspension, top dose 20 µM)”?
A: AUC: 0.991; IC50: > 20 µM

Q: For “LAMA-84 (chronic myeloid leukaemia, suspension, top dose 20 µM)”, which AUC is on record?
A: 0.964

Q: What about the IC50 of the same cell line?
A: > 20 µM

Q: How did the AUC turn out when “LB373-MEL-D (melanoma, adherent, top dose 20 µM)” was run?
A: 0.988

Q: And the IC50?
A: > 20 µM

Q: “LB647-SCLC (small cell lung carcinoma, semi-adherent, top dose 20 µM)” was tested. Which AUC did it give?
A: 0.964

Q: What about the IC50 of the same cell line?
A: > 20 µM

Q: With “LB771-HNC (head and neck, adherent, top dose 20 µM)” as the cell line, how does the AUC read?
A: 0.979

Q: What about the IC50 of the same cell line?
A: > 20 µM

Q: What does the source list for “LB831-BLC (bladder, adherent, top dose 20 µM)”?
A: AUC: 0.987; IC50: > 20 µM

Q: With “LB996-RCC (kidney, adherent, top dose 20 µM)” as the cell line, how does the AUC read?
A: 0.98

Q: What about the IC50 of the same cell line?
A: > 20 µM

Q: With “LB1047-RCC (kidney, adherent, top dose 20 µM)” as the cell line, how does the AUC read?
A: 0.975

Q: And the IC50?
A: > 20 µM

Q: Which results are given for “LB2241-RCC (kidney, adherent, top dose 20 µM)”?
A: AUC: 0.984; IC50: > 20 µM

Q: How did the AUC turn out when “LB2518-MEL (melanoma, adherent, top dose 20 µM)” was run?
A: 0.971

Q: And the IC50?
A: > 20 µM

Q: “LC4-1 (lymphoblastic leukaemia, suspension, top dose 20 µM)” was tested. Which AUC did it give?
A: 0.931

Q: What about the IC50 of the same cell line?
A: > 20 µM

Q: With “LC-1-sq (lung squamous cell carcinoma, adherent, top dose 20 µM)” as the cell line, how does the AUC read?
A: 0.962

Q: And the IC50?
A: > 20 µM

Q: With “LC-2-ad (lung adenocarcinoma, adherent, top dose 20 µM)” as the cell line, how does the AUC read?
A: 0.968

Q: What about the IC50 of the same cell line?
A: > 20 µM

Q: For “LCLC-97TM1 (large cell lung carcinoma, adherent, top dose 20 µM)”, which AUC is on record?
A: 0.908

Q: What about the IC50 of the same cell line?
A: > 20 µM

Q: Which results are given for “LCLC-103H (large cell lung carcinoma, adherent, top dose 20 µM)”?
A: AUC: 0.98; IC50: > 20 µM

Q: For “LK-2 (lung squamous cell carcinoma, adherent, top dose 20 µM)”, which AUC is on record?
A: 0.989

Q: And the IC50?
A: > 20 µM

Q: What does the source list for “LN-18 (glioma, adherent, top dose 20 µM)”?
A: AUC: 0.993; IC50: > 20 µM

Q: What does the source list for “LN-229 (glioma, adherent, top dose 20 µM)”?
A: AUC: 0.98; IC50: > 20 µM

Q: For “LN-405 (glioma, adherent, top dose 20 µM)”, which AUC is on record?
A: 0.98

Q: And the IC50?
A: > 20 µM

Q: “LNZTA3WT4 (glioma, adherent, top dose 20 µM)” was tested. Which AUC did it give?
A: 0.987

Q: What about the IC50 of the same cell line?
A: > 20 µM

Q: What does the source list for “LOU-NH91 (lung squamous cell carcinoma, adherent, top dose 20 µM)”?
A: AUC: 0.984; IC50: > 20 µM

Q: How did the AUC turn out when “LOUCY (T-cell lymphoblastic leukaemia, suspension, top dose 20 µM)” was run?
A: 0.923

Q: And the IC50?
A: > 20 µM

Q: With “LOXIMVI (melanoma, semi-adherent, top dose 20 µM)” as the cell line, how does the AUC read?
A: 0.987

Q: What about the IC50 of the same cell line?
A: > 20 µM

Q: For “LP-1 (myeloma, suspension, top dose 20 µM)”, which AUC is on record?
A: 0.992

Q: What about the IC50 of the same cell line?
A: > 20 µM

Q: Which AUC does the source give for “LS-123 (large intestine, adherent, top dose 20 µM)” here?
A: 0.979

Q: What about the IC50 of the same cell line?
A: > 20 µM

Q: Which AUC does the source give for “LS-180 (large intestine, adherent, top dose 20 µM)” here?
A: 0.985

Q: And the IC50?
A: > 20 µM

Q: “LS-411N (large intestine, adherent, top dose 20 µM)” was tested. Which AUC did it give?
A: 0.973

Q: And the IC50?
A: > 20 µM

Q: What does the source list for “LS-513 (large intestine, adherent, top dose 20 µM)”?
A: AUC: 0.921; IC50: > 20 µM

Q: How did the AUC turn out when “LS-1034 (large intestine, adherent, top dose 20 µM)” was run?
A: 0.966

Q: What about the IC50 of the same cell line?
A: > 20 µM

Q: For “LU-65 (large cell lung carcinoma, suspension, top dose 20 µM)”, which AUC is on record?
A: 0.95

Q: And the IC50?
A: > 20 µM

Q: “LU-99A (large cell lung carcinoma, adherent, top dose 20 µM)” was tested. Which AUC did it give?
A: 0.979

Q: And the IC50?
A: > 20 µM

Q: Which results are given for “LU-134-A (small cell lung carcinoma, suspension, top dose 20 µM)”?
A: AUC: 0.978; IC50: > 20 µM

Q: “LU-139 (small cell lung carcinoma, suspension, top dose 20 µM)” was tested. Which AUC did it give?
A: 0.944

Q: And the IC50?
A: > 20 µM

Q: Which AUC does the source give for “LU-165 (small cell lung carcinoma, suspension, top dose 20 µM)” here?
A: 0.987

Q: And the IC50?
A: > 20 µM

Q: Which results are given for “LXF-289 (lung adenocarcinoma, adherent, top dose 20 µM)”?
A: AUC: 0.976; IC50: > 20 µM

Q: With “LoVo (large intestine, adherent, top dose 20 µM)” as the cell line, how does the AUC read?
A: 0.987

Q: And the IC50?
A: > 20 µM

Q: How did the AUC turn out when “M14 (melanoma, adherent, top dose 20 µM)” was run?
A: 0.986

Q: What about the IC50 of the same cell line?
A: > 20 µM

Q: For “M059J (glioma, adherent, top dose 20 µM)”, which AUC is on record?
A: 0.978

Q: What about the IC50 of the same cell line?
A: > 20 µM

Q: Which AUC does the source give for “MC116 (B-cell lymphoma, suspension, top dose 20 µM)” here?
A: 0.999

Q: And the IC50?
A: > 20 µM

Q: With “MC-CAR (haematopoietic neoplasm, suspension, top dose 20 µM)” as the cell line, how does the AUC read?
A: 0.944

Q: What about the IC50 of the same cell line?
A: > 20 µM

Q: What does the source list for “MC-IXC (neuroblastoma, adherent, top dose 20 µM)”?
A: AUC: 0.995; IC50: > 20 µM

Q: Which AUC does the source give for MCF7 (breast, adherent, top dose 20 µM) here?
A: 0.986

Q: And the IC50?
A: > 20 µM

Q: For “MDA-MB-157 (breast, adherent, top dose 20 µM)”, which AUC is on record?
A: 0.988

Q: What about the IC50 of the same cell line?
A: > 20 µM

Q: “MDA-MB-175-VII (breast, adherent, top dose 20 µM)” was tested. Which AUC did it give?
A: 0.987

Q: What about the IC50 of the same cell line?
A: > 20 µM

Q: Which results are given for “MDA-MB-231 (breast, adherent, top dose 20 µM)”?
A: AUC: 0.984; IC50: > 20 µM

Q: How did the AUC turn out when “MDA-MB-330 (breast, adherent, top dose 20 µM)” was run?
A: 0.979

Q: What about the IC50 of the same cell line?
A: > 20 µM

Q: How did the AUC turn out when “MDA-MB-361 (breast, adherent, top dose 20 µM)” was run?
A: 0.985

Q: What about the IC50 of the same cell line?
A: > 20 µM

Q: For “MDA-MB-415 (breast, adherent, top dose 20 µM)”, which AUC is on record?
A: 0.983

Q: And the IC50?
A: > 20 µM

Q: “MDA-MB-436 (breast, adherent, top dose 20 µM)” was tested. Which AUC did it give?
A: 0.983

Q: And the IC50?
A: > 20 µM

Q: How did the AUC turn out when “MDA-MB-453 (breast, adherent, top dose 20 µM)” was run?
A: 0.976

Q: And the IC50?
A: > 20 µM

Q: With “MDA-MB-468 (breast, adherent, top dose 20 µM)” as the cell line, how does the AUC read?
A: 0.983

Q: What about the IC50 of the same cell line?
A: > 20 µM

Q: What does the source list for “MDST8 (large intestine, adherent, top dose 20 µM)”?
A: AUC: 0.978; IC50: > 20 µM

Q: For “ME-1 (acute myeloid leukaemia, suspension, top dose 20 µM)”, which AUC is on record?
A: 0.937

Q: And the IC50?
A: > 20 µM

Q: What does the source list for “ME-180 (cervix, adherent, top dose 20 µM)”?
A: AUC: 0.97; IC50: > 20 µM
